In one data set the target is T1, calmodulin (UniProt P0DP23).
T1 construct: calmodulin; also called CaM; source: E. coli, coexpressed with iNOS oxyFMN, purified as iNOS-CaM complex
The data set can be described thus: cross-linking; DSBU 250 uM with 5 uM iNOS oxyFMN (co-purified with CaM), 20 mM HEPES, 100 mM NaCl, 1 mM CaCl2, pH 7.5, 30 min, room temperature; SDS-PAGE, dimeric band digested in gel; LC-MS/MS on timsTOF (DDA-PASEF, then PRM-PASEF for quantitation), lysine-lysine cross-links only. The settings on record: both partners purified.

Data set [1] deals with the molecule itself. Described as above.

B1: E546N mutant human inducible NOS oxygenase/FMN (oxyFMN) construct (domain or fragment)
chain: not shown
notes: human inducible nitric oxide synthase (iNOS), oxyFMN construct, […] in full-length iNOS, with E546N on the FMN domain surface; Dimeric band after cross-linking was analysed; also called E546N human iNOS oxyFMN
Consider B1, for which the binding result with calmodulin was “binds”. For the same molecule, in data set [1], the “log2 fold-change (E546N/wt) of the abundance of cross-link 105–689 heme–FMN (inter)” value is -1.86 log2(E546N/wt), the “log2 fold-change (E546N/wt) of the abundance of cross-link 155–607 heme–FMN (inter)” value was -2.08 log2(E546N/wt) and the “log2 fold-change (E546N/wt) of the abundance of cross-link 158–607 heme–FMN (inter)” value was -1.16 log2(E546N/wt).

The values above are taken from article PMC12597282, “Deciphering mutational effects on inducible NO synthase conformational dynamics via quantitative cross-linking mass spectrometry and AlphaFold2 subsampling” (The Journal of Biological Chemistry, 2025).
